# This is one part of the list.
# Legend:
# Assay in all cases: glycan array binding signal (z-score within array); higher = stronger binding
# Conditions in all cases: glycan notation: IUPAC condensed, linker removed; mutation: N224Q
# [1] = biological target: Neu5Ac(a2-8)Neu5Ac
# Procedure, shortened: (§1)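 From the Consortium for Functional Glycomics database, 3228 arrays were curated, keeping only those whose protein sequence was available. Binding is given as a within-array Z-score averaged across arrays sharing a protein sequence and across linkers. Negative Z-scores can be read as non-binding.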
# [2] = biological target: Neu5Ac(a2-8)Neu5Ac(a2-3)Gal(b1-3)GalNAc(b1-4)[Neu5Ac(a2-3)]Gal(b1-4)Glc
# Procedure, shortened: as §1
# [3] = biological target: Neu5Ac(a2-8)Neu5Ac(a2-3)Gal(b1-3)GalNAc(b1-4)[Neu5Ac(a2-8)Neu5Ac(a2-3)]Gal(b1-4)Glc
# Procedure, shortened: as §1
# [4] = biological target: Neu5Ac(a2-8)Neu5Ac(a2-3)Gal(b1-4)Glc
# Procedure, shortened: as §1
# [5] = biological target: Neu5Ac(a2-8)Neu5Ac(a2-3)Gal(b1-4)GlcNAc
# Procedure, shortened: as §1
# [6] = biological target: Neu5Ac(a2-8)Neu5Ac(a2-3)[Gal(b1-3)GalNAc(b1-4)]Gal(b1-4)Glc
# Procedure, shortened: as §1
# [7] = biological target: Neu5Ac(a2-8)Neu5Ac(a2-3)[GalNAc(b1-4)]Gal(b1-4)Glc
# Procedure, shortened: as §1
# [8] = biological target: Neu5Ac(a2-8)Neu5Ac(a2-8)Neu5Ac
# Procedure, shortened: as §1
# [9] = biological target: Neu5Ac(a2-8)Neu5Ac(a2-8)Neu5Ac(a2-3)Gal(b1-4)Glc
# Procedure, shortened: as §1
# [10] = biological target: Neu5Ac(a2-8)Neu5Ac(a2-8)Neu5Ac(a2-3)[Gal(b1-3)GalNAc(b1-4)]Gal(b1-4)Glc
# Procedure, shortened: as §1
# [11] = biological target: Neu5Ac(a2-8)Neu5Ac(a2-8)Neu5Ac(a2-3)[GalNAc(b1-4)]Gal(b1-4)Glc
# Procedure, shortened: as §1
# [12] = biological target: Neu5Ac(a2-8)Neu5Ac(a2-8)Neu5Ac(a2-8)Neu5Ac(a2-3)[GalNAc(b1-4)]Gal(b1-4)Glc
# Procedure, shortened: as §1
# [13] = biological target: Neu5Ac(a2-8)Neu5Gc(a2-3)Gal(b1-4)GlcNAc
# Procedure, shortened: as §1
# [14] = biological target: Neu5Ac(b2-6)Gal(b1-4)GlcNAc
# Procedure, shortened: as §1
# [15] = biological target: Neu5Ac(b2-6)GalNAc
# Procedure, shortened: as §1
# [16] = biological target: Neu5Ac9Ac(a2-3)Gal(b1-3)GlcNAc
# Procedure, shortened: as §1
# [17] = biological target: Neu5Ac9Ac(a2-3)Gal(b1-4)GlcNAc
# Procedure, shortened: as §1
# [18] = biological target: Neu5Ac9Ac(a2-6)Gal(b1-4)GlcNAc
# Procedure, shortened: as §1
# [19] = biological target: Neu5Gc(a2-3)Gal(b1-3)GlcNAc
# Procedure, shortened: as §1
# [20] = biological target: Neu5Gc(a2-3)Gal(b1-3)[Fuc(a1-4)]GlcNAc
# Procedure, shortened: as §1
# [21] = biological target: Neu5Gc(a2-3)Gal(b1-4)Glc
# Procedure, shortened: as §1
# [22] = biological target: Neu5Gc(a2-3)Gal(b1-4)GlcNAc
# Procedure, shortened: as §1
# [23] = biological target: Neu5Gc(a2-3)Gal(b1-4)GlcNAc(b1-3)Gal(b1-4)GlcNAc(b1-2)Man(a1-3)[Neu5Gc(a2-3)Gal(b1-4)GlcNAc(b1-3)Gal(b1-4)GlcNAc(b1-2)Man(a1-6)]Man(b1-4)GlcNAc(b1-4)GlcNAc
# Procedure, shortened: as §1
# [24] = biological target: Neu5Gc(a2-3)Gal(b1-4)[Fuc(a1-3)]GlcNAc
# Procedure, shortened: as §1
# [25] = biological target: Neu5Gc(a2-6)Gal(b1-4)GlcNAc
# Procedure, shortened: as §1
# [26] = biological target: Neu5Gc(a2-6)GalNAc
# Procedure, shortened: as §1
# [27] = biological target: Neu5Gc(a2-8)Neu5Ac(a2-3)Gal(b1-4)GlcNAc
# Procedure, shortened: as §1
# [28] = biological target: Neu5Gc(a2-8)Neu5Gc(a2-3)Gal(b1-4)GlcNAc
# Procedure, shortened: as §1
# [29] = biological target: Neu5Gc(a2-8)Neu5Gc(a2-3)Gal(b1-4)GlcNAc(b1-3)Gal(b1-4)GlcNAc
# Procedure, shortened: as §1
# [30] = biological target: Neu5Gc(a2-8)Neu5Gc(a2-6)Gal(b1-4)GlcNAc
# Procedure, shortened: as §1
# [31] = biological target: Neu5Gc(b2-6)Gal(b1-4)GlcNAc
# Procedure, shortened: as §1
binder,measurement,setting,value
AAL (Aleuria aurantia) (protein) MPTEFLYTSKIAAISWAATGGRQQRVYFQDLNGKIREAQRGGDNPWTGGSSQNVIGEAKLFSPLAAVTWKSAQGIQIRVYCVNKDNILSEFVYDGSKWITGQLGSVGVKVGSNSKLAALQWGGSESAPPNIRVYYQKSNGSGSSIHEYVWSGKWTAGASFGSTVPGTGIGATAIGPGRLRIYYQATDNKIREHCWDSNSWYVGGFSASASAGVSIAAISWGSTPQIRVYWQKGREELYEAAYGGSWNTPGQIKDASRPTPSLPDTFIAANSSGNIDISVFFQASGVSLQQWQWISGKGWSIGAVVPTGTPAGW,glycan array binding signal (z-score),[1],-0.323
same,glycan array binding signal (z-score),[2],-0.313
same,glycan array binding signal (z-score),[3],-0.306
same,glycan array binding signal (z-score),[4],-0.322
same,glycan array binding signal (z-score),[5],-0.337
same,glycan array binding signal (z-score),[6],-0.313
same,glycan array binding signal (z-score),[7],-0.318
same,glycan array binding signal (z-score),[8],-0.324
same,glycan array binding signal (z-score),[9],-0.325
same,glycan array binding signal (z-score),[10],-0.316
same,glycan array binding signal (z-score),[11],-0.313
same,glycan array binding signal (z-score),[12],-0.317
same,glycan array binding signal (z-score),[13],-0.317
same,glycan array binding signal (z-score),[14],-0.314
same,glycan array binding signal (z-score),[15],-0.326
same,glycan array binding signal (z-score),[16],-0.335
same,glycan array binding signal (z-score),[17],-0.306
same,glycan array binding signal (z-score),[18],-0.331
same,glycan array binding signal (z-score),[19],-0.325
same,glycan array binding signal (z-score),[20],-0.216
same,glycan array binding signal (z-score),[21],-0.313
same,glycan array binding signal (z-score),[22],-0.328
same,glycan array binding signal (z-score),[23],-0.29
same,glycan array binding signal (z-score),[24],0.052
same,glycan array binding signal (z-score),[25],-0.32
same,glycan array binding signal (z-score),[26],-0.327
same,glycan array binding signal (z-score),[27],-0.317
same,glycan array binding signal (z-score),[28],-0.317
same,glycan array binding signal (z-score),[29],-0.319
same,glycan array binding signal (z-score),[30],-0.31
same,glycan array binding signal (z-score),[31],-0.313

# Reference: the supplement of paper PMC8728848
